The shares of active, inactive and inconclusive entries below differ from those in the screen. The source made the active and inactive calls.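 How the source made its calls: active means viability at or under a set limit in both replicates, limit being median viability minus 3 SD (cut at about 48% in these data, passing the limit was not always enough); inconclusive means at or under the limit in just one replicate; inactive means at or above the limit in both replicates.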
Test: H69AR cell proliferation blockers – human, duplicate replicates, primary screen (AID 580);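 further: 100% = mean luminescence of untreated wells and 0% = no signal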
Conditions: H69AR lung tumor cells viability, ATP luminescence, 72 h; at 10 µM; stronger effect = lower value

Row | Structure (SMILES) | viability
1 | COc1ccc(CSCCN)cc1Cl | inconclusive: 39.2%
2 | CCn1c(C)nc2cc(C(=O)OC(C(F)(F)C(F)F)C(F)(F)C(F)F)ccc21 | inactive: 79.2%
3 | CCOc1cccc(-n2nnnc2-c2ccc(OC)cc2)c1 | inconclusive: 12.5%
4 | CC(C)Cn1c(=O)c(C(=O)NCc2ccccn2)c(O)c2ccccc21 | inconclusive: 52.3%
5 | O=C(Nc1cccc(-c2nnc(-c3ccccc3)o2)c1)C1CCCCC1 | inconclusive: 54%
6 | N#CC(C(=O)C1CCCCC1)c1nc2ccccc2[nH]1 (centres undefined) | inconclusive: 56.1%
7 | O=C(NCc1ccco1)c1cc2c(s1)CSC2 | inconclusive: 57.3%
8 | O=C(CSc1nnc2scc(-c3ccccc3)n12)Nc1nsc(-c2ccccc2)n1 | inconclusive: 61.1%
9 | CCC1C(=O)n2nc(-c3ccccc3)cc2N=C1C (centres undefined) | inactive: 99%
10 | CCc1nc(N)nc(N)c1-c1ccc(Cl)cc1 | inconclusive: 35.9%
11 | CCCCOc1ccc(C(=O)Nn2cnnc2)cc1 | inactive: 89.5%
12 | Cc1cccc(CN2CCN(C(c3ccccc3)c3ccc(Cl)cc3)CC2)c1 (centres undefined) | inactive: 96.8%
13 | N#CC1=C(N)Oc2c(ccc3cccnc23)C1c1cccnc1 (centres undefined) | active: 15.1%
14 | COC(=O)c1ccccc1NC(=O)C1CC(=O)N(c2ccccc2)C1 (centres undefined) | inactive: 102%
15 | Cc1ccc(NC(=O)c2oc3ccc(S(=O)(=O)N4CCOCC4)cc3c2C)cc1C | inconclusive: 43.4%
16 | CCOC(=O)c1oc2ccccc2c1CSc1nnnn1-c1ccc(C)cc1 | inactive: 69.3%
17 | Cc1c(C(=O)OCC(C)C)[nH]c2c1C(=O)CC(c1ccco1)C2 (centres undefined) | active: 24.1%
18 | CCOC(=O)C1=C(C)Nc2nc(SCC(=O)OC)nn2C1c1cc(F)cc(F)c1 (centres undefined) | inactive: 92.9%
19 | COC(=O)c1ccc(CSc2ncnc3c2nnn3-c2ccc(OC)cc2)o1 | inconclusive: 60.9%
20 | CC1(C)COCN1S(=O)(=O)c1ccc(C(=O)Nc2nnc(-c3ccc(Cl)s3)o2)cc1 | active: 15%

Row | Structure (SMILES) | viability
21 | O=C(c1cc(-c2ccco2)nn1-c1cccc(Cl)c1)N1CCCCC1 | inconclusive: 53.3%
22 | O=C(Cn1ccc2ccccc2c1=O)NCCC(=O)N1CCN(C2CCCCC2)CC1 | inactive: 104%
23 | O=C(NCc1ccc2c(c1)OCO2)c1cccc2c1C(=O)N(C1CCCCC1)C2 | inconclusive: 59.2%
24 | COc1ccc(N2C(=O)C(Cl)=C(Nc3c(C)n(C)n(-c4ccccc4)c3=O)C2=O)cc1 | inconclusive: 45.3%
25 | Cc1cc(C(=O)COc2cccc3cccnc23)c(C)n1C | inconclusive: 59.1%
26 | CC[C@H]1OC(=O)C[C@@H](O)[C@H](C)[C@@H](O[C@@H]2O[C@H](C)C[C@H](N(C)C)[C@H]2O)[C@@H](CC=O)C[C@@H](C)C(=O)C=C[C@]2(C)O[C@H]2[C@@H]1C | inconclusive: 39.1%
27 | COc1cc(NS(=O)(=O)c2ccc(N)cc2)ncn1 | inactive: 92%
28 | COc1ccc(CCn2c(=N)c(C(=O)NCc3ccco3)cc3c(=O)n4ccccc4nc32)cc1 | inconclusive: 56.1%
29 | CC(C)(C)n1nnnc1CN(Cc1ccco1)Cc1cc2cc3c(cc2[nH]c1=O)OCO3 | inconclusive: 59.3%
30 | CCc1ccccc1NC(=O)C(CC)Sc1nc2cc3c(cc2c(=O)n1Cc1ccco1)OCO3 (centres undefined) | active: 28.3%
31 | Cc1ccc2c(c1)CCCN2C(=O)Nc1ccc2c(c1)OCO2 | inactive: 89.5%
32 | COc1ccc(OC)c(-c2nnc(SCC(=O)NC3CCCCC3)o2)c1 | inactive: 98.5%
33 | COc1cc(/C=C/C(=O)CC(=O)/C=C/c2ccc(O)c(OC)c2)ccc1O | inconclusive: 3.09%
34 | CC(C)Cn1c(N)c(C(=O)NCCN2CCOCC2)c2nc3ccccc3nc21 | inconclusive: 55.7%
35 | CC(=O)Nc1sc2c(c1C#N)CCCCC2 | inactive: 95.6%
36 | CCOc1ccccc1C(=O)N1CCN(c2cccc(Cl)c2)CC1 | active: 28.2%
37 | Cc1ccc(-c2cc(C(F)F)n3ncc(C(=O)N4CCN(c5ccccn5)CC4)c3n2)cc1 | inconclusive: 56%
38 | O=C(c1ccco1)N1CCN(c2c(-c3ccccc3)c3cc(Cl)ccc3[nH]c2=O)CC1 | active: 24.5%
39 | CCN(CC)c1ccc(-c2c(C#N)c(N)nc(OC)c2C#N)cc1 | inactive: 79.4%

Reference: PubChem BioAssay
